Out of some 310,000 compounds screened, about 2,200 (0.71%) showed an effect of 50% or more. Effects have a minus sign here. Some of the results follow.

human ether-à-go-go-related gene (hERG) potassium channel, sequence (Q12809 whole entry, looked up): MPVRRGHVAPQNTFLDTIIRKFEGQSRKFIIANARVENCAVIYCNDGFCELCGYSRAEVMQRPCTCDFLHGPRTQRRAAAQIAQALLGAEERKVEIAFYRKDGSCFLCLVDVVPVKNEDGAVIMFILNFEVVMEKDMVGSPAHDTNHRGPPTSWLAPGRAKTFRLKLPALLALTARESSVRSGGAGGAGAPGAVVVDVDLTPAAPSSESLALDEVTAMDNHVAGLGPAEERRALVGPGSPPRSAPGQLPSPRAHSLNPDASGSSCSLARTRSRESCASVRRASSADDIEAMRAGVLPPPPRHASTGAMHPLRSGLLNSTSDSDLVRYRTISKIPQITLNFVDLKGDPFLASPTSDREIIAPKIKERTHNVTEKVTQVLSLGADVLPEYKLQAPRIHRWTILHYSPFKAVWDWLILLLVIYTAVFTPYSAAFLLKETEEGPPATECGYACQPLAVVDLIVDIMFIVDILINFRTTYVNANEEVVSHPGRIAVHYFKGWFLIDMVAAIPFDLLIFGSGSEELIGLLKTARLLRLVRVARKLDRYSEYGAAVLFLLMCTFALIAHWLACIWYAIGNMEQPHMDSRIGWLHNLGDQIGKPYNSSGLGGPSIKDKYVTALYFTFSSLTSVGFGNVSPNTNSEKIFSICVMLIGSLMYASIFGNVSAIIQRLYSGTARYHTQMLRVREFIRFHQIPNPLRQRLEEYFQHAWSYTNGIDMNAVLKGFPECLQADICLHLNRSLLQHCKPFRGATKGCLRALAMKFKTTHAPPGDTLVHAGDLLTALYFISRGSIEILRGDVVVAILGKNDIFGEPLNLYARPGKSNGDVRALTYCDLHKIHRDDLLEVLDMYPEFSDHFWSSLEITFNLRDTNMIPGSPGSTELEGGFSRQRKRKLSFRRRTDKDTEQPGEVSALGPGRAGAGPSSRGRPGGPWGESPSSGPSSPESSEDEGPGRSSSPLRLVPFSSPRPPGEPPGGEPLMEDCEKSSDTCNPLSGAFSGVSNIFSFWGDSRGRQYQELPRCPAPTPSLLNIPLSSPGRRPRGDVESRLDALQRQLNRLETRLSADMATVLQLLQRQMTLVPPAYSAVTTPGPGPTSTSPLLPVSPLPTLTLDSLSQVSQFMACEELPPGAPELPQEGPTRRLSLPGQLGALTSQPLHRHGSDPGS

The test addresses human ether-à-go-go-related gene (hERG) potassium channel (human, UniProt Q12809). Put plainly: primary screen, population patch clamp on CHO cells stably expressing hERG.
With `COc1ccc(OC2CCN(C(=O)Nc3ccc(C)cc3)CC2)cc1`, the “hERG current change (%, negative = inhibition) at 1uM” value was 12.4%. With `O=[N+]([O-])c1ccc(N=Cc2ccc(Br)c([N+](=O)[O-])c2)cc1` the figure was 8.66%. Consider `Cc1ccc2nc(Nc3ccccc3)cc(C)c2c1`, for which the “hERG current change (%, negative = inhibition) at 1uM” value was 6.39%.

As to `COc1ccccc1-c1nnc(NC(=O)C2=COCCO2)o1`, the “hERG current change (%, negative = inhibition) at 1uM” value came out at 19.2%. The value for `C=CCOC(=O)C(=O)/C=C/c1ccc2c(c1)Cc1ccccc1-2` was 3.71%; that for `O=C(CSc1ccc(Cl)cc1)c1ccco1` was 11%; that for `CC#CCN1c2ccccc2[C@]23C[C@@H](C(=O)OC)N(C(=O)c4cc(C)oc4C)C2=NC(C(=O)OC)=C(C(=O)OC)[C@H]13` was 2.49%. In the case of `Cc1cc(C)n(-c2ccc(C(=O)Nc3ccc(S(=O)(=O)N(C)C)cc3)cc2)n1`, the “hERG current change (%, negative = inhibition) at 1uM” value turned out to be 14.8%.

With `Nn1c(SCc2cccc(F)c2)nnc1-c1ccncc1`, the “hERG current change (%, negative = inhibition) at 1uM” value was determined as 6.55%. The value for `COC(=O)c1ccc(CSc2nnc3ccccn23)o1` was 0.835%; that for `Cc1cc(C)c2nc(-n3nc(C)cc3N)cc(C)c2c1` was 18.6%. As for `CCOC(=O)c1sc(=NC(=O)c2ccccc2)n(C)c1C`, the “hERG current change (%, negative = inhibition) at 1uM” value worked out at 10.7%. The value for `COc1ccc(OCC(=O)NCCS(=O)(=O)N2CCN(c3ccc(F)cc3)CC2)cc1` was 3.41%. With `O/N=C(\c1ccccc1)C(O)c1ccccc1` (stereo not shown) the figure was 5.91%. With `COc1ccc(Cl)cc1N1C(=O)C2CCCN2C1c1ccc(F)cc1` (stereo not shown) the figure was 6.63%; with `COc1ccc(S(=O)(=O)NCC2CCCN(C(=O)CCSC)C2)cc1` (stereo not shown), 21.7%; with `CCn1c2ccccc2c2cc(N)ccc21`, 15.4%. For the compound `NC(N)=Nc1nc2ccccc2o1`, the “hERG current change (%, negative = inhibition) at 1uM” value was determined as 9.79%.

Turning to `Br.C/C(CC1CC(COCC(C)C)OC1=O)=N\Nc1nc(-c2ccccc2)cs1` (stereo not shown), the “hERG current change (%, negative = inhibition) at 1uM” value is listed as 6.71%. With `CCC(C)(C)C1CCC2(CC1)NC(=O)N(CC(=O)Nc1nc(-c3ccc(C)cc3)cs1)C2=O` (stereo not shown), the “hERG current change (%, negative = inhibition) at 1uM” value was determined as 20.4%.

Regarding `Cn1c(-c2ccc([N+](=O)[O-])cc2)nc2ccccc21`, the “hERG current change (%, negative = inhibition) at 1uM” value is recorded as 6.58%.

`CCN(CC)c1ccc2c(c1)oc(=O)c1c(Cl)cc(=O)oc12`: the “hERG current change (%, negative = inhibition) at 1uM” value was 10.8%. The value for `O=c1cc(C(F)F)oc2c1ccc1ccccc12` was 3.09%; that for `CC(=O)N1CCc2c(sc3c2c(=O)n(-c2ccccc2)c(=O)n3Cc2ccccc2Cl)C1` was 10.8%; that for `N#Cc1c2n(c3c(=O)[nH]cnc13)CCCC2` was 12.8%. On to `Cc1nnc(Sc2c(N)n(C)c(=O)[nH]c2=O)s1`, for which the “hERG current change (%, negative = inhibition) at 1uM” value is -5.72%. Turning to `CCOC(=O)C(=Cc1ccc(-n2ccnc2)cc1)C(=O)OCC`, the “hERG current change (%, negative = inhibition) at 1uM” value is reported as -10.8%. With `CCN1C(=O)[C@H]2[C@@H](c3ccc(-c4ccc(F)cc4)cc3)N[C@@](CC(C)C)(C(=O)OC)[C@H]2C1=O.O=C(O)C(F)(F)F` the figure was 13.6%; with `Cc1ccc2c(c1)c(-c1ccccc1)nc1nnnn12`, 1.18%. The value for `CCOC(=O)C(CC(=O)O)NCc1ccco1` (stereo not shown) was 7.71%. The value for `CCOC(=O)CNc1nc(-c2ccncc2)nc2ccccc12` was 11.8%; that for `CC(C)c1nnc(NC(=O)CC(C)c2ccccc2)s1` (stereo not shown) was 10.6%. Consider `CCCSc1nnc(N)s1`, for which the “hERG current change (%, negative = inhibition) at 1uM” value is on record as 14.6%.

Turning to `Cc1ccc(CN(C)CC(=O)Nc2ccc3c(c2)CCC3)cc1`, the “hERG current change (%, negative = inhibition) at 1uM” value is 12.2%.

On to `Cc1ccc(S(=O)(=O)N2CCOCC2)cc1NC(=O)COC(=O)c1ccc2c(c1)OCCO2`, for which the “hERG current change (%, negative = inhibition) at 1uM” value is 8.88%. In the case of `CC(C)NC(=O)c1ccccc1NC(=O)C(C)Oc1ccccc1` (stereo not shown), the “hERG current change (%, negative = inhibition) at 1uM” value is given as 5.95%. With `COc1ccc(C(=O)NNC(=O)CCc2ccccc2OC)cc1`, the “hERG current change (%, negative = inhibition) at 1uM” value came out at 9.71%. Regarding `Cc1cc(C(=O)C(=O)O)c(C)n1-c1ccc(Cl)cc1`, the “hERG current change (%, negative = inhibition) at 1uM” value worked out at 4.39%. As to `Cc1ccc(NC2CC(C)NC(=S)N2)cc1` (stereo not shown), the “hERG current change (%, negative = inhibition) at 1uM” value is on record as 7.87%. As for `Cn1c(=O)c2c(nc(NCCCN3CCOCC3)n2Cc2ccc(Cl)cc2)n(C)c1=O`, the “hERG current change (%, negative = inhibition) at 1uM” value is -7.87%. `CCn1c(COc2cccc(C)c2)nnc1SCC(=O)CC(=O)Nc1ccccc1OC`: the “hERG current change (%, negative = inhibition) at 1uM” value was -4.67%. With `CCOc1ccc(C(=O)Nc2nnc(S(=O)(=O)Nc3ccccc3C)s2)cc1` the figure was 14.7%.

Regarding `Cc1cc(-c2cc(C(=O)Nc3ccccc3)on2)nc(NC2CCCC2)n1`, the “hERG current change (%, negative = inhibition) at 1uM” value was 7.78%. The value for `COc1cccc(NC(=O)CNC(C)CCC(C)C)c1.Cl` (stereo not shown) was 11.6%; that for `COc1ccc(C2Nc3ccccc3C(=O)N2c2ccccc2)cc1CSc1ccccn1` (stereo not shown) was 8.41%. The value for `Cc1nn(Cc2ccccc2)c(C)c1/C=N/NC(=O)c1ccncc1` was -15.6%; that for `COc1ccccc1C1(CC(=O)O)CCOC(C)(C)C1` (stereo not shown) was 12.2%. Regarding `CC(C)OCCCNC(=O)CCc1nc(-c2ccccc2)no1`, the “hERG current change (%, negative = inhibition) at 1uM” value is recorded as 15.3%.

On to `Cc1ccsc1/C=N/NC(=O)CN1CCN(S(=O)(=O)c2ccc(Br)cc2)CC1`, for which the “hERG current change (%, negative = inhibition) at 1uM” value was -0.365%.

Take `O=C(CNC(=O)c1ccc(Br)o1)OCC(=O)c1cccc([N+](=O)[O-])c1`: the “hERG current change (%, negative = inhibition) at 1uM” value is -3.61%. With `O=C(c1ccccc1)N1N=C(C(F)(F)F)CC1(O)c1ccccc1` (stereo not shown) the figure was 14%; with `CS(=O)(=O)c1ccc(CNC(=O)C2(C(F)(F)F)C/C(=C/CCO)CCCO2)cc1` (stereo not shown), -1.54%.

For the compound `CC(C)OCCCNC(=O)C1CC(=O)N(CCc2ccccc2)C1` (stereo not shown), the “hERG current change (%, negative = inhibition) at 1uM” value was found to be 10.2%.

Regarding `COc1cc(C2=NOC(C(=O)Nc3cc(C)on3)C2)cc(OC)c1OC` (stereo not shown), the “hERG current change (%, negative = inhibition) at 1uM” value amounted to 7.34%.

With `COc1ccc(-c2cn[nH]c2-c2ccc(OCc3ccccc3)cc2O)cc1`, the “hERG current change (%, negative = inhibition) at 1uM” value was 11.9%. With `CC(Oc1ccccc1F)C(=O)NNC(=O)c1cccc(S(=O)(=O)N2CCN(C)CC2)c1` (stereo not shown) the figure was -5.03%; with `COc1ccc(-c2onc(C)c2C)cc1S(=O)(=O)NCCc1ccco1`, 8.93%. The value for `Cn1c(SCCN2CCCC2)nnc1C1CCN(S(=O)(=O)c2cccc(F)c2)CC1` was 10.3%; that for `CCOc1ccc(NCC(=O)N/N=C/C=C/c2ccccc2)cc1` was 16%; that for `CC(=O)c1cccc(CN2CCC(n3nccc3NC(=O)CCCc3ccccc3)CC2)c1` was -6.28%.

As for `CC1=CC(C)(C)N(C(=O)CSc2ncn[nH]2)c2ccc(C)cc21`, the “hERG current change (%, negative = inhibition) at 1uM” value came to 7.56%. As to `O=C(c1ccc(-c2ccccc2)cc1)N1CCN(c2ccccc2F)CC1`, the “hERG current change (%, negative = inhibition) at 1uM” value is 16.7%. On to `CCCn1c(SCC(=O)c2cc(C)n(C3CC3)c2C)n[nH]c1=O`, for which the “hERG current change (%, negative = inhibition) at 1uM” value is given as -0.838%. For the compound `Cc1ccc(Oc2cc(C#N)c(C#N)cc2-n2nnc3ccccc32)cc1C`, the “hERG current change (%, negative = inhibition) at 1uM” value came out at 7.63%.

For `Cc1cc(NC(=O)CCl)on1`, the “hERG current change (%, negative = inhibition) at 1uM” value was found to be 9.81%.

Consider `O=C(COc1ccc(Br)cc1)Nc1ccccc1N1CCCC1`, for which the “hERG current change (%, negative = inhibition) at 1uM” value turned out to be 16.8%. For the compound `COc1cccc(CN(C)C(=O)c2ccc3nccnc3c2)c1`, the “hERG current change (%, negative = inhibition) at 1uM” value was found to be 4.64%. With `COc1ccc(NC(=O)COC(=O)Cc2c[nH]c3ccccc23)cc1OC` the figure was 12.6%; with `O=C(CSc1nnc2c(n1)[nH]c1ccc(F)cc12)OCc1ccccc1`, 17%; with `CCCc1cc(C(=O)N2CCN(S(=O)(=O)c3ccc(OC)c(OC)c3)CC2)cs1`, -2.36%. Turning to `O=S(=O)(NCCOc1ccccc1Cl)c1ccc2oc3ccccc3c2c1`, the “hERG current change (%, negative = inhibition) at 1uM” value is listed as 5.41%. The value for `O=C(CSCSCC(=O)Nc1ccc2c(c1)OCO2)Nc1ccc2c(c1)OCO2` was 3.52%; that for `O=C(O)C(=O)O.c1ccc2cc(OCCCn3ccnc3)ccc2c1` was 6.01%; that for `O=[N+]([O-])c1ccc(N/N=C2\CC3CC=CC23)c([N+](=O)[O-])c1` (stereo not shown) was -2.34%.

As for `CN1CCN(Cc2c(C(=O)N/N=C/c3cccc(Br)c3)nnn2-c2nonc2N)CC1`, the “hERG current change (%, negative = inhibition) at 1uM” value is -29.3%. With `Cc1cc2nnc(SCC(=O)N3CCOCC3)n2c2ccccc12` the figure was 6.27%; with `O=C(NN1C(=O)C2C3C=CC(C4CC34)C2C1=O)c1ccc(Cl)cc1` (stereo not shown), 9.69%; with `O=C1CCC([N+](=O)[O-])C(c2ccc(F)c(Br)c2)N1` (stereo not shown), 16.9%. Take `Cc1ccc(CNC(=O)c2c(C)cc(=O)oc2C)cc1`: the “hERG current change (%, negative = inhibition) at 1uM” value was -2.82%. The value for `CCOC(=O)C1CCCN(C(=O)c2ccc(Cl)cc2)C1` (stereo not shown) was 5.78%; that for `COc1cccc(/C=N/Nc2ccc(Cl)nn2)c1` was 13.2%. `Cc1[nH]c2ccccc2c1C(=O)CSc1nc2ccccc2c(=O)n1-c1ccccc1F`: the “hERG current change (%, negative = inhibition) at 1uM” value was determined as 5.68%. The value for `CC(/C=N/n1c(-c2n[nH]c3c2CCC3)n[nH]c1=S)=C\c1ccco1` was 21.9%; that for `CN(c1ccccc1)c1nccc(=O)[nH]1` was 13.9%; that for `O=C(NCCc1ccccc1)c1cnc2ccccc2n1` was 8.78%. On to `Nc1nnnn1NCc1cccc(OCc2ccccc2)c1`, for which the “hERG current change (%, negative = inhibition) at 1uM” value was determined as 16.5%. With `Cc1ccc2c(CN3CCN(CCO)CC3)cc(=O)oc2c1C` the figure was 0.189%; with `CCN(CC)C(C)C(=O)Nc1c2c(cc3c1CCC3)CCC2.Cl` (stereo not shown), 8.92%. Regarding `O=C(COc1ccccc1Cl)OCC(=O)N1CCN(S(=O)(=O)c2ccccc2)CC1`, the “hERG current change (%, negative = inhibition) at 1uM” value was found to be 7.23%. As to `CCOC(=O)COc1c(/C=N\OC)cc(Cl)cc1OC`, the “hERG current change (%, negative = inhibition) at 1uM” value was 5.63%. With `COc1ccccc1C(O)P(=O)(OC1CCCCC1)OC1CCCCC1` (stereo not shown), the “hERG current change (%, negative = inhibition) at 1uM” value is on record as 3.38%.

(Values after paper PMC4336329 (PLoS ONE, 2015).)
